{"source": "PubChem BioAssay AID1379", "about": "(National Center for Advancing Translational Sciences (NCATS), 2008)", "note": "Among all 200,000 compounds or so, about 560 (0.28%) were called active. Inconclusive means that the source gave no clear call. Such entries were picked first, then a sample of the others. Calls come from the whole dose curve; as a rule, active = well fitted inhibition curve with a large enough effect; inconclusive = small, poorly fitted or top-dose-only effect; inactive = flat fitted curve, though single readings scatter. No potency is given beside an inconclusive call; the fits are too rough. % is set by controls: 0 for no effect and ±100 for the full control effect; potency is the fitted concentration of half-maximal effect; tags give direction and shape of the fitted curve.", "data": [{"biological_target": "Luciferin 4-monooxygenase (Photuris pensylvanica) (UniProt Q27757)", "assay": "Counterscreen for Luciferase (Kinase-Glo TM) Inhibition; note: nearly all actives have a fitted effect of over 60% in size", "settings": "ATP luminescence, 8 min; series mostly up to 38.3 µM; activity change, negative = inhibition: at the top concentration", "method_in_brief": "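Substrate mix (final 50 mM imidazole pH 7.2, 50 mM KCl, 7 mM MgCl2, 10 uM ATP, 0.01% Tween 20, 0.05% BSA) plus pin-tool compound, then Kinase-Glo detection mix; 8 min ambient, luminescence read.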", "values": [{"smiles": "CN1CCN(c2nc(-c3ccc(N(C)C)cc3)nc3ccccc23)CC1", "Potency": "inconclusive [inhibitor, single point]"}, {"smiles": "COc1cc(OC)cc(C(=O)NC(=S)Nc2cccnc2)c1", "Potency": "inconclusive [inhibitor, partial curve]"}, {"smiles": "CSc1nc(N)c2ncn([C@H]3O[C@H](COP(=O)(O)OP(=O)(O)OP(=O)(O)O)[C@@H](O)[C@@H]3O)c2n1", "Potency": "inconclusive [inhibitor, partial curve]"}, {"smiles": "O=C(Nc1nc2ccccc2[nH]1)C1CCCC1", "Potency": "inconclusive [inhibitor, partial curve]"}, {"smiles": "COc1cc(OC)cc(C(=O)Nc2cccc(C(C)=O)c2)c1", "Potency": "inconclusive [inhibitor, partial curve]"}, {"smiles": "CCOc1ccc(C2C(C(C)=O)=C(O)C(=O)N2CCc2c[nH]c3ccccc23)cc1", "note": "(centres undefined)", "activity change, negative = inhibition": "inactive: -0.293%"}, {"smiles": "Cc1cc(C(=O)Nc2cccc(C(=O)O)c2)oc1C", "Potency": "inconclusive [inhibitor, partial curve]"}, {"smiles": "COc1cccc(/C=N/Nc2nccnc2Cl)c1O", "Potency": "active: 11.2 µM"}, {"smiles": "Cc1c(N=C2NC(=O)C(CC(=O)Nc3ccccc3)S2)c(=O)n(-c2ccccc2)n1C", "note": "(centres undefined)", "activity change, negative = inhibition": "inactive: 1.69%"}, {"smiles": "O=C(O)c1cc(O)c2c(c1)C(=O)c1cc(O)cc(O)c1C2=O", "Potency": "inconclusive [inhibitor, partial curve]"}, {"smiles": "O=C(CC1CCC1)NC(c1ccccc1)c1ccccc1", "activity change, negative = inhibition": "inactive: -1.19%"}, {"smiles": "O=S(=O)(Nc1ccc(-c2cn3cccnc3n2)cc1)c1ccccc1", "activity change, negative = inhibition": "inactive: -0.957%"}, {"smiles": "Cc1ccc(-c2nc3cc(C)ccc3o2)cc1", "Potency": "inconclusive [inhibitor, partial curve]"}, {"smiles": "c1ccc(Cn2c(-c3ccco3)nc3nc4ccccc4nc32)cc1", "Potency": "inconclusive [inhibitor, single point]"}, {"smiles": "O=C(N/N=C/c1ccc([N+](=O)[O-])o1)c1cc(-c2ccc(-c3ccccc3)cc2)nc2ccccc12", "Potency": "active: 11.2 µM"}, {"smiles": "Cc1ccn2c(c1)nc(=S)n2C(=O)c1ccccc1", "Potency": "inconclusive [inhibitor, partial curve]"}, {"smiles": "COc1ccc(/C=C/C2=NN(C)C(=O)CC2)cc1", "Potency": "inconclusive [inhibitor, partial curve]"}, {"smiles": "COc1ccc2oc(=O)c(-c3nc(C)cs3)cc2c1", "Potency": "inconclusive [inhibitor, partial curve]"}, {"smiles": "CC(C)CN(CC(C)C)c1nnc(NC(=O)Cn2c(=O)oc3ccccc32)s1", "activity change, negative = inhibition": "inactive: -2.53%"}, {"smiles": "O=C(N/N=C/c1ccc2ncccc2c1)c1ccco1", "Potency": "inconclusive [inhibitor, partial curve]"}, {"smiles": "Cc1cc(C)c2c(=O)n(CC(=O)N3CCC(N4CCCCC4)CC3)sc2n1", "Potency": "inconclusive [inhibitor, single point]"}, {"smiles": "Cc1ccnc(NC(=O)c2cc3ccccc3oc2=O)c1", "Potency": "active: 11.2 µM"}, {"smiles": "CCN1C(=O)/C(=C/C=C2/Sc3ccccc3N2CCO)SC1=S", "Potency": "inconclusive [inhibitor, partial curve]"}, {"smiles": "O=C(c1cc(-c2cccs2)on1)N1CCOCC1", "activity change, negative = inhibition": "inactive: -9.65%"}, {"smiles": "Cc1ccc(NC(=O)c2ccco2)cc1C", "Potency": "inconclusive [inhibitor, partial curve]"}, {"smiles": "COC(=O)c1ccc(NC(=O)C(=O)c2cccn2C)cc1", "Potency": "active: 12.6 µM"}, {"smiles": "O=C(Nc1ccc(C(=O)N2CCOCC2)cc1)c1cccs1", "Potency": "inconclusive [inhibitor, partial curve]"}, {"smiles": "COc1ccc(-c2nc3ccncc3[nH]2)cc1OC", "Potency": "inconclusive [inhibitor, partial curve]"}, {"smiles": "Cc1ccccc1/C=C1\\CCCc2ccccc2C1=O", "Potency": "inconclusive [inhibitor, partial curve]"}, {"smiles": "Cc1c2cc(O)c(=O)cc-2oc2cc(O)c(O)cc12", "Potency": "inconclusive [inhibitor, single point]"}, {"smiles": "N#C/C(=N\\Nc1ccc(Cl)cc1)C(=N)N1CCCCCC1", "activity change, negative = inhibition": "inactive: -0.99%"}, {"smiles": "COC(=O)c1cccc(NC(=O)c2cccc(OC)c2)c1", "Potency": "inconclusive [inhibitor, partial curve]"}, {"smiles": "c1ccc(-n2nnc3c(N4CCOCC4)ncnc32)cc1", "Potency": "inconclusive [inhibitor, single point]"}, {"smiles": "O=C(O)CCCC[C@@H]1CCSS1", "activity change, negative = inhibition": "inactive: -0.229%"}, {"smiles": "COc1cc(/C=N/Nc2nn3cnnc3c3ccccc23)ccc1O", "Potency": "active: 12.6 µM"}, {"smiles": "Cc1ccnc(NC(=O)c2ccc3c(c2)OCO3)c1", "Potency": "active: 12.6 µM"}, {"smiles": "O=S(=O)(N1CCCCC1)N1CCN(CC(O)COc2ccc3cc(Br)ccc3c2)CC1", "note": "(centres undefined)", "activity change, negative = inhibition": "inactive: -0.247%"}, {"smiles": "CCOc1ccc(-c2ccc(SC)nn2)cc1", "Potency": "active: 3.16 µM"}, {"smiles": "c1ccc(-c2n[nH]c(-c3ccccn3)n2)nc1", "Potency": "inconclusive [inhibitor, partial curve]"}, {"smiles": "N/C(=N\\OC(=O)c1ccc2c(c1)OCO2)c1cccnc1", "Potency": "inconclusive [inhibitor, partial curve]"}, {"smiles": "N/C(=N\\OC(=O)/C=C/c1ccccc1)c1ccccc1", "Potency": "inconclusive [inhibitor, partial curve]"}, {"smiles": "O=C(Nc1nc2c(s1)C(=O)CCC2)c1ccccc1", "Potency": "inconclusive [inhibitor, partial curve]"}, {"smiles": "CN(C)c1ccc(/C=c2\\sc3n(c2=O)CCCN=3)cc1", "Potency": "inconclusive [inhibitor, single point]"}, {"smiles": "O=C(Nc1ccc(N2CCCC2)c(Cl)c1)c1ccc([N+](=O)[O-])o1", "Potency": "inconclusive [inhibitor, partial curve]"}, {"smiles": "CC(O)c1nc2ccccc2n1CC(=O)Nc1ccc2c(c1)OCCO2", "note": "(centres undefined)", "activity change, negative = inhibition": "inactive: -4.41%"}, {"smiles": "Oc1ccc(/C=N/Nc2nccnc2Cl)cc1", "Potency": "active: 3.55 µM"}, {"smiles": "CCN(CC)C(=O)COc1ccc2oc(-c3ccco3)cc(=O)c2c1", "activity change, negative = inhibition": "inactive: 0.643%"}, {"smiles": "COC(=O)[C@@H]1CC[C@H](C)[C@@H](c2ccc(C)cc2)N1C(=O)c1ccc(/C=N/OCC[C@@H]2C=C[C@H](OC(C)=O)[C@@H](COC(C)=O)O2)cc1", "activity change, negative = inhibition": "inactive: -3.33%"}, {"smiles": "Cc1ccc(CSc2nc3ncccc3[nH]2)cc1", "Potency": "inconclusive [inhibitor, single point]"}, {"smiles": "O=C1c2ccccc2S(=O)(=O)N1Cc1nnc(-c2ccccc2Br)o1", "activity change, negative = inhibition": "inactive: 0.147%"}, {"smiles": "COc1ccc2nc(-c3ccc(N)cc3)[nH]c2c1", "Potency": "active: 10 µM"}, {"smiles": "CCOCC(=O)Nc1nc2ccc(S(C)(=O)=O)cc2s1", "activity change, negative = inhibition": "inactive: -11.3%"}, {"smiles": "Cc1csc(N/N=C/c2ccccn2)n1", "Potency": "inconclusive [inhibitor, partial curve]"}, {"smiles": "COC(=O)c1ccc(NCC(=O)c2ccccc2)cc1", "Potency": "active: 10 µM"}, {"smiles": "COc1ccc(N/C=C\\C(=O)c2ccc3c(c2)OCO3)cc1", "Potency": "inconclusive [inhibitor, single point]"}, {"smiles": "CCOc1ccc2nc(-c3ccccc3)[nH]c2c1", "Potency": "inconclusive [inhibitor, partial curve]"}, {"smiles": "Brc1cc2c(cc1/C=N/Nc1nc3ccccc3s1)OCO2", "activity change, negative = inhibition": "inactive: -5.38%"}, {"smiles": "O=C(Nc1nc2ccccc2s1)c1ccccc1", "Potency": "inconclusive [inhibitor, single point]"}, {"smiles": "OC(CCCN1CCC(O)(c2ccc(Cl)cc2)CC1)c1ccc(F)cc1", "note": "(centres undefined)", "activity change, negative = inhibition": "inactive: 0.468%"}, {"smiles": "Cc1ccccc1NC(=O)c1onc2c1CCCC2", "Potency": "inconclusive [inhibitor, partial curve]"}, {"smiles": "CN(C)c1ccc(/C=N/NC(=O)c2ccccc2)cc1", "Potency": "inconclusive [inhibitor, partial curve]"}, {"smiles": "CCOC(=O)c1c(C)c(C(=O)Nc2ccc(F)cc2)c(C)n1C", "activity change, negative = inhibition": "inactive: 2.59%"}, {"smiles": "CCN1C(=O)CSc2ccc(C(=O)NCc3ccco3)cc21", "activity change, negative = inhibition": "inactive: 10%"}, {"smiles": "O=C(N/N=C/c1ccccc1)c1[nH]ncc1Br", "Potency": "active: 6.31 µM"}, {"smiles": "Cc1sc(NC(=O)c2ccco2)nc1-c1ccc2c(c1)CC(C)N2C(=O)C1CC1", "note": "(centres undefined)", "activity change, negative = inhibition": "inactive: 1.59%"}, {"smiles": "CCOc1ccc(NC(=O)c2ccccn2)cc1", "Potency": "active: 12.6 µM"}, {"smiles": "Cc1csc(NC(=O)c2cc3c(s2)CCC3)n1", "Potency": "inconclusive [inhibitor, partial curve]"}, {"smiles": "O=C(CSC(=S)N1CCN(c2ccccc2)CC1)Nc1nc(-c2ccccc2)c(-c2ccccc2)o1", "activity change, negative = inhibition": "inactive: -2.29%"}, {"smiles": "COCCN1Cc2cccc(C(=O)Nc3ccc(S(=O)(=O)N4CCOCC4)cc3)c2C1=O", "activity change, negative = inhibition": "inactive: -0.238%"}, {"smiles": "CC1(C)OC(c2ccccc2)=C/C(=C/C=C2C(=O)c3ccccc3C2=O)O1", "Potency": "inconclusive [inhibitor, partial curve]"}, {"smiles": "CCc1ccc(C(=O)COC(=O)c2cccs2)cc1", "Potency": "inconclusive [inhibitor, single point]"}, {"smiles": "O=C(OC1CCOC1=O)c1ccc(-c2nc3ccccc3s2)s1", "note": "(centres undefined)", "Potency": "inconclusive [inhibitor, partial curve]"}, {"smiles": "Cc1ccc(-c2nc(-c3ccccc3)no2)c(Cl)c1", "Potency": "inconclusive [inhibitor, partial curve]"}, {"smiles": "O=C(Nc1ccccc1F)c1ccc(CSc2ncccn2)cc1", "Potency": "inconclusive [inhibitor, single point]"}, {"smiles": "O=Cc1ccc(OCc2ccccn2)cc1", "Potency": "inconclusive [inhibitor, single point]"}, {"smiles": "N#C/C(=C/c1ccco1)c1nc2ccccc2s1", "Potency": "inconclusive [inhibitor, partial curve]"}, {"smiles": "N#Cc1ccc(OCc2nnc(SCC(=O)N3CCCc4ccccc43)n2-c2ccccc2)cc1", "activity change, negative = inhibition": "inactive: -0.428%"}, {"smiles": "O=[N+]([O-])c1ccc(N=Nc2ccc(O)cc2O)cc1", "Potency": "inconclusive [inhibitor, single point]"}, {"smiles": "Cc1ccsc1/C=C1\\CCc2ccccc2C1=O", "Potency": "active: 10 µM"}]}]}
